# Reference: PubChem BioAssay AID1347165 (National Center for Advancing Translational Sciences (NCATS), 2019)
# “And” between values parts separate entries of the source, which are not always exact repeats. Identical values can stand only once. About 5,700 (2.6%) of roughly 220,000 compounds were called active. The inconclusive results got no clear call from the source; some entries with a clear call stand among them for comparison. Calls come from the whole dose curve; as a rule, active = well fitted inhibition curve with a large enough effect; inconclusive = small, poorly fitted or top-dose-only effect; inactive = no such curve, though single readings can be large or run the other way. A potency beside an inconclusive call is a rough fit, not a confirmed value.
# Molecular target: Lysine-specific demethylase 5B (Homo sapiens) (UniProt Q9UGL1)
# Test: Primary screen for KDM5B Histone Demethylases FDH-coupled qHTS; note: nearly all actives have a fitted effect of over 70% in size; for activity change, negative = inhibition: 0% is about no effect
# Conditions: FDH-coupled NADH fluorescence (FDH is formaldehyde dehydrogenase); activity change, negative = inhibition: at 57.7 µM (top of the series) unless noted
# Summary of the method: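 Inhibition is measured as reduced NADH fluorescence generation from FDH coupling to formaldehyde release. Truncated KDM5BΔAP at 200 nM final acts on H3K4me3 peptide (12.5 µM in substrate mix) in pH 7.5 HEPES buffer with Tween-20, 30 min, room temperature.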
# Potency is the fitted concentration of half-maximal effect; tags give direction and shape of the fitted curve.
# Chain of UniProt Q9UGL1 (Q9UGL1 whole entry, looked up): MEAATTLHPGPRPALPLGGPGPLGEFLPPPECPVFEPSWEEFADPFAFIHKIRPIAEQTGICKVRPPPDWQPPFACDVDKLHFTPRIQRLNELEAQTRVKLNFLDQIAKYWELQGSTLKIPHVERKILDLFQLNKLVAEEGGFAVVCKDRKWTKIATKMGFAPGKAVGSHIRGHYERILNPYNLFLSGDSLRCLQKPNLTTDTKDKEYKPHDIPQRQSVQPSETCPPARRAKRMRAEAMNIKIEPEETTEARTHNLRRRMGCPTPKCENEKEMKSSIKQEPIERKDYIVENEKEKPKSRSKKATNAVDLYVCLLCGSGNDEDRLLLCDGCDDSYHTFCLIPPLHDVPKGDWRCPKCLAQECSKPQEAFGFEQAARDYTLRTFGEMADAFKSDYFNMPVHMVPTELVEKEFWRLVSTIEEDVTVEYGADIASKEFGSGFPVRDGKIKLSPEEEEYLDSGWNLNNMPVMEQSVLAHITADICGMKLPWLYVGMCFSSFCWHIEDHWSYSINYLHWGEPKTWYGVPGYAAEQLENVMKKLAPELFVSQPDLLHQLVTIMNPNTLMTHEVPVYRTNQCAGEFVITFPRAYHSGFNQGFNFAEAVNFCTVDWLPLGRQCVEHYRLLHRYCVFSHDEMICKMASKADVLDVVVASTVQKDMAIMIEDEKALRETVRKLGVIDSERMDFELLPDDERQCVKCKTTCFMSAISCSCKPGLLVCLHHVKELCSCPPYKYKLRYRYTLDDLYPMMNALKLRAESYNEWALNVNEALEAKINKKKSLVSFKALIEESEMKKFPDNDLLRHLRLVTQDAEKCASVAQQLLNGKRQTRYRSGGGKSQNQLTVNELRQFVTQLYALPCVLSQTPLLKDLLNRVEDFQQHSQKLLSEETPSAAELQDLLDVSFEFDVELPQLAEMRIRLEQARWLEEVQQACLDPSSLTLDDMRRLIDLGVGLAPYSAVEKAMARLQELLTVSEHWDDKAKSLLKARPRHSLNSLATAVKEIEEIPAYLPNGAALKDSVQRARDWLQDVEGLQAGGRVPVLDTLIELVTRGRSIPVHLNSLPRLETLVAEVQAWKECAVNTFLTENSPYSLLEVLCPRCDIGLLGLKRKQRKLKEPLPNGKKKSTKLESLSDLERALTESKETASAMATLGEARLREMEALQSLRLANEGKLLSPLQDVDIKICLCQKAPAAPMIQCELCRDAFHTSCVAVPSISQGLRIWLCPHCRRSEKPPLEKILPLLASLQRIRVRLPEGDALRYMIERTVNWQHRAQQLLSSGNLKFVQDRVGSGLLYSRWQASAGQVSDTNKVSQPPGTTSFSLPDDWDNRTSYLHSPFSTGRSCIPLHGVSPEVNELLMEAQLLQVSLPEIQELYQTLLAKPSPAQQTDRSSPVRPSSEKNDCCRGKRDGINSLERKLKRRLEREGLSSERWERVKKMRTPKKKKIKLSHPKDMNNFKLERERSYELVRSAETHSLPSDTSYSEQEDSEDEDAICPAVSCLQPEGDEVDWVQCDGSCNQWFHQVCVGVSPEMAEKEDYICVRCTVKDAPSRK
SMILES,Potency,"activity change, negative = inhibition"
COc1ccc(CNC(=O)c2cnn(-c3ccc(C)cc3)c2-n2cccc2)cc1OC,"inconclusive: 15.8 µM [inhibitor, partial curve, poor fit]",–
COCCN1Cc2ccc(Nc3cccnc3)nc2C(C)(C(=O)Nc2ccccc2C)C1 (stereo unspecified),"inconclusive: 20 µM [inhibitor, partial curve, poor fit]",–
Cc1ccc(CC(=O)N(C)CC(=O)Nc2ccccc2C(F)(F)F)cc1,"inconclusive: 39.8 µM [inhibitor, single point]",–
O=C(c1cc2ccccc2oc1=O)N1CCC(N2CCCCC2)CC1,"inconclusive: 25.1 µM [inhibitor, partial curve, poor fit]",–
Cc1nn(C)c2c1c(-c1ccccc1)cc(=O)n2Cc1ccc(Cl)cc1,"inconclusive: 35.5 µM [inhibitor, partial curve, poor fit]",–
COc1ccc(-n2nc(C3CCN(Cc4ccc(C)cc4)CC3)[nH]c2=O)cc1,inactive,–
O=C(Nc1cccc(-c2nc3ccccc3o2)c1)c1ccccc1Br,–,inactive: 9.39%
COc1ccc(-c2cc(C(F)(F)F)c(C#N)c(SCC(=O)Nc3ccccc3F)n2)cc1,"inconclusive: 35.5 µM [inhibitor, single point]",–
CC(=O)c1ccc(NC(=O)N2C[C@@H]3C[C@H](C2)c2ccc(NC(=O)Nc4cccc(C#N)c4)c(=O)n2C3)cc1,–,inactive: 4.52%
c1ccc(-c2nc(-c3ccncc3)no2)c(OC2CCNC2)c1 (stereo unspecified),"inconclusive: 25.1 µM [inhibitor, partial curve, poor fit]",–
CC1(C)CC(NC(=O)C2CCN(S(=O)(=O)c3ccc(C#N)cc3)CC2)CC(C)(C)N1,–,inactive: 7.91%
COc1ccc2c(c1)c1c(c(=O)n(-c3ccccc3C)c(=O)n1CC(=O)N1CCCC1)n2C,"inconclusive: 2.82 µM [inhibitor, full curve, poor fit]",–
COc1ccc(C2C=C(c3ccccc3)Nc3nc(NC(=O)/C=C/c4ccc(F)cc4)nn32)cc1 (stereo unspecified),"inconclusive: 14.1 µM [inhibitor, partial curve, poor fit]",–
Cn1c(/C(C#N)=C(\O)c2ccccc2Cl)nc2ccccc21,"inconclusive: 25.1 µM [inhibitor, single point]",–
COc1ccc(CNC(=O)[C@@H]2Cc3cn(CC4CC4)c4cccc(c34)[C@H](CC(C)C)N2)cc1,"inconclusive: 39.8 µM [inhibitor, single point]",–
COc1ccc(-c2ccccc2NC(=O)C2CCCN(Cc3ccccc3O)C2)cc1 (stereo unspecified),–,inactive: -3.77%
COc1ccc(NC(=O)CSc2oc(-c3cccs3)nc2S(=O)(=O)c2ccc(Br)cc2)c(OC)c1,"inconclusive: 8.91 µM [inhibitor, partial curve, poor fit]",–
O=C(NCc1ccc(F)cc1)C1CCCN(c2nc3ncccc3o2)C1 (stereo unspecified),"inconclusive: 14.1 µM [inhibitor, partial curve]",–
COc1ccc2oc(-c3cccc(NC(=O)c4ccc(Br)o4)c3)nc2c1,"inconclusive: 22.4 µM [inhibitor, partial curve, poor fit]",–
CN(Cc1ccccc1)Cc1cn([C@H]2CO[C@H]3[C@@H]2OC[C@@H]3NC(=O)CCC(=O)O)nn1,"inconclusive: 28.2 µM [inhibitor, partial curve, poor fit]",–
N#Cc1c(-c2ccccc2)cc(-c2cccs2)nc1SCS(=O)Cc1ccc(Cl)cc1 (stereo unspecified),"inconclusive: 28.2 µM [inhibitor, partial curve, poor fit]",–

SMILES,Potency,"activity change, negative = inhibition"
Cc1occc1C(=O)N/N=C/c1ccc2c(c1)OCO2,–,inactive: -11.1%
COc1cccc(C(=O)N[C@@H]2CN(c3ncccn3)C[C@H]2CN(C)C)c1,active: 31.6 µM,–
Cc1nn(CC(=O)NCCN2CCCCCC2)c(=O)c2nc(-c3ccccc3)sc12,active: 20 µM,–
CN(CC1CCOCC1)S(=O)(=O)c1cc(F)ccc1F,–,inactive: -16.3%
CCOc1ccc(-n2cc(-c3ccccc3)c3c(NCC(OC)OC)ncnc32)cc1,"inconclusive: 39.8 µM [inhibitor, single point]",–
CCC[C@H]1CN(C(=O)c2cccc(N3CCOCC3)c2)C[C@@H]1N,"inconclusive: 14.1 µM [inhibitor, partial curve]",–
CNc1nc2c(s1)C(c1ccc(Cl)cc1)CC(=O)N2 (stereo unspecified),active: 31.6 µM,–
CCc1ccc2oc(=O)cc(CN3CCCCC3)c2c1,"inconclusive: 35.5 µM [inhibitor, single point]",–
COc1cccc(CCC(=O)NCc2nnc3c(-c4nc(C)no4)cccn23)c1,"inconclusive: 14.1 µM [inhibitor, single point]",–
CCCCN(CC)CCNC(=O)c1cn(CCOC)c(=O)c2c1c1ccccc1n2C,"inconclusive: 7.94 µM [inhibitor, partial curve, poor fit] and inconclusive: 28.2 µM [inhibitor, partial curve, poor fit]",–
COC(=O)CC1=C(C)C(=O)CC2C(C)(C)CCC[C@]12C (stereo partly specified),–,inactive: 17.1%
Cc1nn(C)cc1CN1CC2(CCN(C(=O)C3CC3)CC2)CC1C(=O)O (stereo unspecified),"inconclusive: 39.8 µM [inhibitor, partial curve, poor fit]",–
O=C(c1ccccc1)c1ccc(C(=O)N2CCN(c3ccccc3)CC2)cc1,–,inactive: -3.85%
Cc1c(CCC(=O)N2CCOCC2)c(=O)oc2c(C)c(O)ccc12,"inconclusive: 2 µM [inhibitor, full curve, poor fit]",–
Cc1cccc(C)c1-n1nnnc1SC(C(=O)N(C)C)c1ccccc1 (stereo unspecified),–,inactive: 14.9%
COc1ccc(CNC(=O)C2CCN(Cc3nc(-c4ccc(OC)c(OC)c4)oc3C)CC2)cc1,"inconclusive: 39.8 µM [inhibitor, single point]",–
CCCCNc1ncc(C(=O)O)c(C)n1,active: 14.1 µM,–
COc1ccc(COC(=O)C2=C(C)NC3=C(C(=O)CCC3)C2c2ccccc2C(F)(F)F)cc1 (stereo unspecified),–,inactive: 595%
COc1cccc(OC)c1C(=O)Nc1nnc(C)s1,"inconclusive: 8.91 µM [inhibitor, partial curve, poor fit]",–
COc1cccc(Cn2c(=O)n(-c3ccc(C)c(F)c3)c(=O)c3sc4ccccc4c32)c1,"inconclusive: 1.58 µM [inhibitor, partial curve, poor fit]",–
